From PubChem BioAssay AID588334 (Broad Institute, 2011)
Hit rate of the full screen: of about 300,000 compounds, about 2,300 (0.77%) were called active. This list was built around the results that the source calls inconclusive (neither active nor inactive); the mix of calls is not that of the screen.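 The calls were made as follows: active = mean activation of at least 80% with every replicate also reaching 80%; inconclusive = mean reaches 80% but some replicate falls short; inactive = the rest.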

Assay: MITF-driven TRPM1 luciferase induction in melanoma cells – cell-based, SK-MEL-5, single point, primary screen (AID 588334);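 also: 0% = neutral control wells and 100% = parthenolide positive control wells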
Details: SK-MEL-5 TRPM1-promoter luciferase, 24 h; at 12.5 µM; stronger effect = higher value; % of positive control, neutral wells = 0

Row | Compound | activation
1 | O=C(Nc1ccc2c(c1)OCCO2)c1cc(F)c(F)cc1Cl | inconclusive: 80.1%
2 | OCCCN1c2ccccc2Nc2nnc(-c3ccccc3)cc21 | inconclusive: 86%
3 | CC(=O)/C(=N\Nc1ccc(Cl)cc1)Sc1nnc(-c2ccccc2)n1-c1ccccc1 | inactive: 5.08%
4 | CCS(=O)(=O)c1ccc2oc(Nc3ccccc3C)nc2c1 | inconclusive: 81.9%
5 | CC(C)(C)c1csc(NC(=O)Nc2ccccc2)n1 | inconclusive: 84.7%
6 | O=C(CP(=O)(c1ccccc1)c1ccccc1)N1CCCCC1 | inactive: 2.2%
7 | CC(=O)Cn1cnc2c(cnn2-c2ccc(C)c(C)c2)c1=O | inconclusive: 87.7%
8 | Cn1cccc1C(=O)NC1CCCCCC1 | active: 95.6%
9 | CCOc1ccc(S(=O)(=O)NCCN2CCOCC2)c2ccccc12 | inactive: -5.09%
10 | COc1cc(C=O)ccc1OCc1cccc(Br)c1 | inconclusive: 88.4%
11 | Cn1cccc1CNC(=O)Nc1ccc(Cl)c(Cl)c1 | inconclusive: 82.7%
12 | COc1ccc(NC(=O)c2csc(Cc3ccc(Cl)cc3)n2)cc1 | inactive: -11.1%
13 | CC(=O)Nc1cccc(CCc2nc3ccccc3[nH]2)c1 | inactive: 25.6%
14 | CC(C)(C)c1ccc(C(=O)Nc2ccc(C=C(C#N)C#N)cc2)cc1 | inconclusive: 92.4%
15 | Cc1occc1C(=O)Nc1ccc(OCc2ccccc2)cc1 | inconclusive: 91.8%
16 | O=C(Nc1ccccc1)Nc1ccc2ccccc2c1 | active: 91.7%
17 | Nn1c(COc2ccc(Cl)cc2)nc2ccccc2c1=O | active: 98.8%
18 | Cc1ccccc1-c1nc2cc(Cl)ccc2o1 | inconclusive: 84.6%
19 | CCOCC(=O)Nc1nc2ccc(OC)cc2s1 | inconclusive: 82.2%
20 | O=C(Nc1ccc2nn(-c3ccccc3)nc2c1)c1cccs1 | inconclusive: 97.5%
21 | Cc1ccccc1-n1c(C)cc(/C=N/Nc2ccc([N+](=O)[O-])cn2)c1C | inconclusive: 80.9%
22 | Cc1ccn2c(C(=O)c3ccc(Cl)cc3)cnc2c1 | inconclusive: 89.2%

Row | Compound | activation
23 | O=C(Nc1cccnc1)c1cc(-c2cc(Cl)ccc2O)n[nH]1 | inconclusive: 84.9%
24 | c1ccc(OCc2nc(-c3cccs3)no2)cc1 | active: 108%
25 | Cc1nc(N)sc1N=Nc1ccc(F)cc1 | inconclusive: 82.2%
26 | COc1ccc(-c2cc(=O)c3ccc(O)cc3o2)cc1 | inconclusive: 88.1%
27 | CSc1cccc(NC(=O)c2cnn3ccccc23)c1 | active: 104%
28 | O=C(CC1SC(N2CCOCC2)=NC1=O)Nc1cccc(C(F)(F)F)c1 (stereo not given) | inactive: -2.48%
29 | O=C(Nc1ccc(F)cc1)/C(Cl)=C/c1ccccc1 | active: 83.6%
30 | COC(=O)CCC(=O)N1CCCC(CO)(Cc2ccccc2)C1 (stereo not given) | active: 94.6%
31 | Cc1ccc(Nc2cc(C)nc(-c3ccccc3)n2)cc1 | active: 122%
32 | CCOC(=O)c1cc2c(nc1N)CC(C)(CC)OC2 (stereo not given) | inconclusive: 85.2%
33 | CCN(CC)C(=O)c1cc(-c2ccc(Br)cc2)on1 | inconclusive: 86.7%
34 | O=C(Nc1ccccc1)c1cccc(N2CCCC2=O)c1 | inconclusive: 86%
35 | COc1ccc(-n2nc(C(=O)NCC(=O)N3CCN(c4ccccc4F)CC3)c3ccccc3c2=O)cc1 | inconclusive: 81.8%
36 | O=S(=O)(c1ccc(SCc2cccc(Cl)c2)nc1)N1CCCC1 | inactive: 7.31%
37 | CCN(CC)c1ccc(NC(=O)/C=C\c2ccccc2Cl)cc1 | active: 95.9%
38 | Cc1cc(C)n(-c2ccc(C(=O)N3CCN(c4ccccn4)CC3)cc2)n1 | inactive: 0.803%
39 | O=C(OCc1nc2ccsc2c(=O)[nH]1)c1ccc(Cl)nc1 | inactive: -8.48%
40 | COC(=O)C12CC3CC(C1)CC(n1cnc(Cl)n1)(C3)C2 | inactive: -9.2%
41 | CC(C)(C)C(=O)Nc1nc2cc3c(cc2s1)OCO3 | inconclusive: 84.1%
42 | Cc1nn(-c2ccccc2)c(C)c1C(=O)Oc1ccccc1 | inconclusive: 80.4%
43 | CCC1CCCCN1C(=O)c1ccc2nc(Cc3ccc(OC)cc3)oc2c1 (stereo not given) | inconclusive: 80.1%
44 | Cc1nn(-c2nc3ccccc3s2)c(N)c1-c1ccccc1 | inconclusive: 80.6%

Row | Compound | activation
45 | CN(C)c1ccc(/C=N/NC(=O)c2ccc3c(c2)OCCO3)cc1 | inactive: 30.9%
46 | CC1CCN(S(=O)(=O)N2CCC(C(=O)NCCc3ccccc3)CC2)CC1 | inactive: -9.26%
47 | Nc1ccc2cc3ccccc3cc2c1 | inconclusive: 90.3%
48 | Cc1cccc(-n2cnc(C(=O)NC3CCCCCC3)c2)n1 | inconclusive: 89.7%
49 | COc1ccc(OCc2cc(C(=O)N3CCCCCC3)no2)c(Cl)c1 | inconclusive: 82.1%
50 | Cc1ccnc(NC(=O)CCCNC(=O)c2ccc(Cl)cc2)c1 | inconclusive: 84.2%
51 | CC(=O)c1ccc2c(c1)Cc1cc(C(C)=O)ccc1-2 | active: 93%
52 | c1ccc2c(c1)NCCS2 | inactive: -3.93%
53 | O=C(O)c1ccc(N/N=C/c2ccc(-c3ccccc3)cc2)cc1 | active: 92.4%
54 | c1ccc(CSc2ccc(-c3ccc4c(c3)OCO4)nn2)cc1 | active: 89.5%
55 | Clc1ccc(SCc2cn3ccccc3n2)cc1 | inconclusive: 82.2%
56 | O=c1oc(-c2cccs2)nc2sc3c(c12)CCCC3 | inactive: 6.12%
57 | OCCNC(=S)Nc1ccc2nsnc2c1 | inactive: -5.5%
58 | O=C(c1ccc(-c2ccccc2Cl)o1)N1CCCC(C(F)(F)F)C1 (stereo not given) | inconclusive: 80.7%
59 | Clc1ccc(-n2ncc3c(NCc4cccnc4)ncnc32)cc1Cl | inactive: 10.1%
60 | O=C(O)c1ccc(-c2nc(-c3ccc(Cl)cc3)cs2)cc1 | active: 118%
61 | Cc1cccc(Nc2nnc(SCC(=O)NC(=O)Nc3ccc4c(c3)OCCO4)s2)c1 | inactive: 4.61%
62 | C/C(=N\OC(=O)c1cccc(C(F)(F)F)c1)c1sc(-c2ccccc2)nc1C | inconclusive: 89%
63 | Cn1ccc(NC(=O)c2ccc(Cl)cc2Cl)n1 | inconclusive: 82.8%
64 | Cc1ccc(-n2ncc3c2ncn2c(C)nnc32)cc1C | inconclusive: 89%
65 | O=C(OCc1cc(=O)n2ccsc2n1)c1ccccc1O | inconclusive: 82.3%
